Data on 16 molecules can be found in USRE49495E1, “Binding polypeptides having a mutated scaffold” (Affibody AB, priority 2013, dated 2023).

Where two headings read alike, the source gives them in different places.

Data set [1] can be described thus: Far UV circular dichroism, secondary structure content estimated with CDNN. Conditions: secondary structure content by CD, 0.17 mg/ml, Pi buffer pH 7.0. The data set is classed as physicochemical. On the procedure:
The CD spectra were recorded by a J-720 CD spectropolarimeter (Jasco, Japan). The samples were diluted to 0.17 mg/ml protein concentration using Pi buffer (5 mM Na—K—PO4, pH 7.0). A CD spectrum of Pi buffer was firstly recorded, then spectra were recorded for each of the samples and lastly for the Pi buffer again. […] The buffer spectrum was smoothened using the Savitzky-Golay procedure with convolution width of 25. The other spectra were smoothened according to the same procedure with a convolution width of 15. The smoothened buffer spectrum was then subtracted from each of the other smoothened spectra. […] The integrity of the secondary structure content was compared to the recombinantly produced PSI0257 (SEQ ID NO:26).

Data set [2] is described as follows: Accelerated stability study of C5 binding polypeptides, 2 weeks at 37° C., SDS-PAGE and Reversed Phase HPLC (RPC). Conditions: for stability when compared with PSI0242: conclusion from Table 1, 2 weeks at 37° C. The data set is classed as physicochemical.
The next data set concerns the target T1, human C5 (Homo sapiens, UniProt P01031).
T1 construct: purchased
Nature of the data set: Inhibition of hemolysis of antibody sensitized sheep erythrocytes (classical complement pathway). The data set is classed as cell-based.

Data set [3] is described as follows: Three month stability test at 37° C., RPC main peak.
The mark [4] stands for this setting: RPC, after 2 weeks at 37° C., 25 mM NaP/125 mM NaCl pH 7.0.
Where [5] appears, read: RPC, data from Example 2 repeated in Table 8.

B1: PSI0257: recombinant control C5 binding polypeptide (protein)
chain: AEAKYAKEVLEAWDEIDRLPNLTIEQWLAFINKLDDDPSQSSELLSEAKKLNDSQAPKVDGS
modifications: Engineered C5 binding Z variant
With B1, in data set [1], the Antiparallel is given as 3%, the Beta-Turn was 13%, the Helix is 63% and the Parallel was 3%. In addition, in data set [1], the “Rndm. Coil” value is listed as 13%.

B2: PSI0369: modified C5 binding polypeptide fused to albumin binding domain (protein)
chain: AEAKYAKEVLEAWDEIDRLPNLTIEQWLAFINKLDDDPSQSSELLSEAKKLNDSQAPLAEAKEAANAELDSYGVSDFYKRLIDKAKTVEGVEALKDAILAALP
modifications: Engineered C5 binding Z variant
B2: in data set [2] (setting [4]), the “Main peak (% of total protein)” value is recorded as 90%. Moreover, in data set [2], the “stability when compared with PSI0242” value is “increased stability”.

B3: PSI0242: known control C5 binding Z variant fused to albumin binding domain; positions 1-60 are Z06175a of WO2013/126006 (protein)
chain: AEAKYAKEVLEAWDEIDRLPNLTIEQWLAFINKLDDDPSQSSELLSEAKKLNDSQAPKVDGSLAEAKEAANAELDSYGVSDFYKRLIDKAKTVEGVEALKDAILAALP
modifications: Engineered C5 binding Z variant
For the molecule B3, in data set [2] (setting [4]), the “Main peak (% of total protein)” value is reported as 57%.

B4: PSI0340: modified C5 binding polypeptide fused to albumin binding domain (protein)
chain: AEAKYAKEVLEAWDEIDRLPNLTIEQWLAFINKLEDDPSQSSELLSEAKKLNDSQAPKVDGSLAEAKEAANAELDSYGVSDFYKRLIDKAKTVEGVEALKDAILAALP
modifications: Engineered C5 binding Z variant
On to B4, for which the “Main peak (% of total protein)” value in data set [2] (setting [4]) was 67%. Moreover, the “stability when compared with PSI0242” value in data set [2] is reported as “increased stability”.

B5: PSI0378: C5 binding polypeptide fused to albumin binding domain; ND to SE in positions 52-53 (protein)
chain: AEAKYAKEVLEAWDEIDRLPNLTIEQWLAFINKLDDDPSQSSELLSEAKKLSESQAPKVEGSLAEAKEAANAELDSYGVSDFYKRLIDKAKTVEGVEALKDAILAALP
modifications: Engineered C5 binding Z variant
As for B5, the “function in the hemolysis assay” value in the data set with human C5 is reported as “do not significantly differ from the reference compound PSI0242”. The “Main peak (% of total protein)” value in data set [2] (setting [4]) turned out to be 89%. Moreover, in data set [2] (setting [5]), the “2 weeks, 37° C. Main peak (% of total protein)” value (shortened to “2 weeks … (% of total protein)”) was determined as 89%. Further, the “stability when compared with PSI0242” value in data set [2] was “increased stability”. Also, in data set [3], the “stability after 3 months at 37° C. compared with PSI0242 after 2 weeks” value is listed as “higher proportion of protein in the original form”. In data set [3] (RPC), the “3 months, 37° C. Main peak (% of total protein)” value (“3 months … (% of total protein)” below) came to 59%.

B6: PSI0339: modified C5 binding polypeptide fused to albumin binding domain (protein)
chain: AEAKYAKEVLEAWDEIDRLPNLTIEQWLAFIAKLDDDPSQSSELLSEAKKLNDSQAPKVDGSLAEAKEAANAELDSYGVSDFYKRLIDKAKTVEGVEALKDAILAALP
modifications: Engineered C5 binding Z variant
For the molecule B6, in data set [2] (setting [4]), the “Main peak (% of total protein)” value was found to be 57%.

B7: PSI0337: modified C5 binding polypeptide fused to albumin binding domain (protein)
chain: AEAKYAKEVLEAWDEIERLPNLTIEQWLAFINKLDDDPSQSSELLSEAKKLNDSQAPKVDGSLAEAKEAANAELDSYGVSDFYKRLIDKAKTVEGVEALKDAILAALP
modifications: Engineered C5 binding Z variant
On to B7, for which the “Main peak (% of total protein)” value in data set [2] (setting [4]) turned out to be 57%.

B8: PSI0335: modified C5 binding polypeptide fused to albumin binding domain (protein)
chain: AEAKYAKEVLEAWDEIDRLPNLTIEQWLAFINKLDDDPSQSSELLSEAKKLNDSQAPKVDGSLAEAKVLANRELDKYGVSDFYKRLINKAKTVEGVEALKLHILAALP
modifications: Engineered C5 binding Z variant
B8: in data set [2] (setting [4]), the “Main peak (% of total protein)” value is on record as 57%.

B9: PSI0410: C5 binding polypeptide fused to albumin binding domain (protein)
chain: AEAKYAKEVLEAWDEIDRLPNLTIEQWLAFINKLDDDPSQSSELLSEAKKLNDSQAPKVEGSLAEAKEAANAELDSYGVSDFYKRLIDKAKTVEGVEALKDAILAALP
modifications: Engineered C5 binding Z variant
On to B9, for which the “function in the hemolysis assay” value with human C5 is reported as “do not significantly differ from the reference compound PSI0242”. For the same molecule, the “Main peak (% of total protein)” value in data set [2] (setting [4]) is reported as 72%. In data set [2] (setting [5]), the “2 weeks … (% of total protein)” value is 72%. Besides, the “stability when compared with PSI0242” value in data set [2] was “increased stability”. Further, the “3 months … (% of total protein)” value in data set [3] (RPC) was 16%.

B10: PSI0403: C5 binding polypeptide fused to albumin binding domain; D to E in position 53 (protein)
chain: AEAKYAKEVLEAWDEIDRLPNLTIEQWLAFINKLDDDPSQSSELLSEAKKLNESQAPKVEGSLAEAKEAANAELDSYGVSDFYKRLIDKAKTVEGVEALKDAILAALP
modifications: Engineered C5 binding Z variant
For the molecule B10, the “Main peak (% of total protein)” value in data set [2] (setting [4]) turned out to be 77%. In addition, the “2 weeks … (% of total protein)” value in data set [2] (setting [5]) came to 77%. Besides, the “stability when compared with PSI0242” value in data set [2] was “increased stability”. Also, the “3 months … (% of total protein)” value in data set [3] (RPC) was determined as 35%.

B11: PSI0379: C5 binding polypeptide fused to albumin binding domain; ND to SE in positions 52-53 (protein)
chain: AEAKYAKEVLEAWDEIDRLPNLTIEQWLAFINKLDDDPSQSSELLSEAKKLSESQAPKVAGSLAEAKEAANAELDSYGVSDFYKRLIDKAKTVEGVEALKDAILAALP
modifications: Engineered C5 binding Z variant
In the case of B11, in data set [2], the “2 weeks … (% of total protein)” value turned out to be 88%. Also, the “Main peak (% of total protein)” value in data set [2] (pH 7) turned out to be 88%. Also, in data set [3], the “3 months … (% of total protein)” value was 58%.

B12: PSI0336: modified C5 binding polypeptide fused to albumin binding domain (protein)
chain: AEAKYAKEVLEAWSEIDRLPNLTIEQWLAFINKLDDDPSQSSELLSEAKKLNDSQAPKVDGSLAEAKEAANAELDSYGVSDFYKRLIDKAKTVEGVEALKDAILAALP
modifications: Engineered C5 binding Z variant
Turning to B12, the “Main peak (% of total protein)” value in data set [2] (setting [4]) is on record as 57%.

B13: PSI0404: C5 binding polypeptide fused to albumin binding domain; N to S in position 52 (protein)
chain: AEAKYAKEVLEAWDEIDRLPNLTIEQWLAFINKLDDDPSQSSELLSEAKKLSDSQAPKVEGSLAEAKEAANAELDSYGVSDFYKRLIDKAKTVEGVEALKDAILAALP
modifications: Engineered C5 binding Z variant
As for B13, the “Main peak (% of total protein)” value in data set [2] (setting [4]) is on record as 88%. The “2 weeks … (% of total protein)” value in data set [2] (setting [5]) turned out to be 88%. In addition, the “stability when compared with PSI0242” value in data set [2] is “increased stability”. Also, the “3 months … (% of total protein)” value in data set [3] (RPC) is 46%.

B14: PSI0334: modified C5 binding polypeptide fused to albumin binding domain; ND to SE in positions 52-53 (protein)
chain: AEAKYAKEVLEAWDEIDRLPNLTIEQWLAFINKLDDDPSQSSELLSEAKKLSESQAPKVDGSLAEAKEAANAELDSYGVSDFYKRLIDKAKTVEGVEALKDAILAALP
modifications: Engineered C5 binding Z variant
For B14, the “Main peak (% of total protein)” value in data set [2] (setting [4]) is listed as 73%. Further, the “2 weeks … (% of total protein)” value in data set [2] (setting [5]) came out at 73%. Besides, the “stability when compared with PSI0242” value in data set [2] is reported as “increased stability”. The “3 months … (% of total protein)” value in data set [3] (RPC) was 16%.

B15: PSI0381: C5 binding polypeptide fused to albumin binding domain; ND to ES in positions 52-53 (protein)
chain: AEAKYAKEVLEAWDEIDRLPNLTIEQWLAFINKLDDDPSQSSELLSEAKKLESSQAPKVEGSLAEAKEAANAELDSYGVSDFYKRLIDKAKTVEGVEALKDAILAALP
modifications: Engineered C5 binding Z variant
Take B15: the “Main peak (% of total protein)” value in data set [2] (setting [4]) was 87%. Moreover, the “2 weeks … (% of total protein)” value in data set [2] (setting [5]) is reported as 87%. Also, the “stability when compared with PSI0242” value in data set [2] is reported as “increased stability”. Moreover, the “3 months … (% of total protein)” value in data set [3] (RPC) worked out at 46%.

B16: PSI0332: modified C5 binding polypeptide fused to albumin binding domain (protein)
chain: AEAKYAKEVLEAWDEIDRLPNLTIEQWLAFINKLDRQPEQSSELLSEAKKLNDSQAPKVDGSLAEAKEAANAELDSYGVSDFYKRLIDKAKTVEGVEALKDAILAALP
modifications: Engineered C5 binding Z variant
As to B16, in data set [2] (setting [4]), the “Main peak (% of total protein)” value was 57%.
